Consider 14 molecules from PMC12136788.

T1: UNK ZnF1-3 (human, UniProt Q9C0B0 31-174)
T1 sequence: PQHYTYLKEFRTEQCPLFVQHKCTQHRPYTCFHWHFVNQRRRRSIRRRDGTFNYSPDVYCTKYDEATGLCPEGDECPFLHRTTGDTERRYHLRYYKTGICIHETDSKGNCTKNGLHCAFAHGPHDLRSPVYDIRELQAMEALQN

B1: 29137040_29140844_828_3pUTR_ENSG00000163811_ENST00000407426|human|control|control (ssRNA)
RNA: GGGAGUUCUACAGUCCGACGAUCACAAAGUUAAGUCAAUAUAGACAGGUUCAUCGGUAACUGUAAAUGACAUCACUGCACUCUUUUCUUUGUUUUCUGAUCGGACCUGCCAGACAUUAAGUAACCGGUCAUGUACUGCUCCAGCAACAGAGGAUUGAGCAUCA
B2: chr4:140556289:140556290:+_ENSMUSG00000036622_ENSMUST00000037055|mus_mus|mus_mus_mus_hu_False|58_68 (ssRNA)
RNA: GGGAGUUCUACAGUCCGACGAUCGAUGGAGCUCACCAGGCCCCCUUUUGCCGUGCAGAACCCUGUGCGAGUCACCACUGCUAGCACGUGCGGUCCCACAUAGGCCCGGGCCUGCAAGAUGAGGGUCCCGCAGAAGAGUGUGUGCAACAGAGGAUUGAGCAUCA
B3: chr13:100201082:100201083:-_ENSMUSG00000052727_ENSMUST00000064762|mus_hu|FALSE|FALSE (ssRNA)
RNA: GGGAGUUCUACAGUCCGACGAUCAAGAUCAUUAUCUUGGGUGUAGGACGGCUCCUCCAUAGGUGGUAUCUUAUGUGAUAAACUGGAGUCCUGCAUGUCAGAAGGACUGUAGUCCACUUCAGUUGGCCCAUUUUCAGUGAUGUGCAACAGAGGAUUGAGCAUCA
B4: chr17:65740002:65740003:+_ENSG00000130935_ENST00000581375|hu_hu|hu_hu_hu_mus_False|68_68 (ssRNA)
RNA: GGGAGUUCUACAGUCCGACGAUCAACAAAUCUUUCUUCCCUGGACGAACAGGAAGAUUCAUAUUAACUUUAUAAAAUAUCCAUCAAGUUAGGUGUGGUGGCCACACCUUUACUCCCAGCACUUUGGGAGGUGGAUCUCUGAGUCAACAGAGGAUUGAGCAUCA
B5: 64081242_64081362_2382_3pUTR_ENSMUSG00000025959_ENSMUST00000114086|mouse|control|control (ssRNA)
RNA: GGGAGUUCUACAGUCCGACGAUCUUUAAGCUUCCAAAUAAGCUUUUUUUUUUUUUUCAAGUUUUCAUUAGCAAAAAAUCAGAGAGAUUUAAAAAGAAAAAAUCUAGCACUGGCAAGAAGGUGAGGCUCAAGGGGUAUACUGUGCAACAGAGGAUUGAGCAUCA
B6: chr19:7360422:7360423:-_ENSMUSG00000024969_ENSMUST00000032557|mus_mus|motif|central (ssRNA)
RNA: GGGAGUUCUACAGUCCGACGAUCAUAAGGAGGACUGCCACAGAAAGUAUCCAGCUUGUUCCCAAAGGUGAAUUCGUUGCGGAAGCCAAAGUCUGCAAUCUUGAUGUUCAUAUCAGCAUCCAGGAGCAGGUUUUCUGCCUUUAGCAACAGAGGAUUGAGCAUCA
B7: chr8:95500983:95500984:-_ENSG00000164944_ENST00000437199|hu_hu|hu_hu_hu_mus_True|58_88 (ssRNA)
RNA: GGGAGUUCUACAGUCCGACGAUCAGAACACAUCUAUCGAGUAAAGGGAGCGUACAUACGGCCUCUACCACUGCCUCCCACUAACAACUUUCCUCUCGAGCCUCCACUGCCGCUAUUUGUACUAGCCCAGGACGGUCCCAGGCCCAACAGAGGAUUGAGCAUCA
B8: 20809958_20810078_1146_3pUTR_ENSG00000196678_ENST00000357967|human|control|control (ssRNA)
RNA: GGGAGUUCUACAGUCCGACGAUCUGAACAGUUGGAACGGUGGUAGAAACAAGUACCAAUUCUGAACCAACUGUUGAAGCCUUAGAUUUGGUAUUAAAUGCAAGAUGUUCAUUUUUUCCUUGCUUUUGCAUAUAGAUAGGUGAACAACAGAGGAUUGAGCAUCA
B9: chr1:235599081:235599082:+_ENSG00000116957_ENST00000366601|hu_mus|motif|central (ssRNA)
RNA: GGGAGUUCUACAGUCCGACGAUCAGAUCUGCUAUAAGGCUCAGCUGGCUUUCAUCAAUUGAUGGGUUGGAGGAAAGGUCGGGUAACCUCAUUUUCUGCAGGACAUUCACUGGCCUUUCAGAAAUGGAAAUAUUGUUAGACUUGCAACAGAGGAUUGAGCAUCA
B10: 47823176_47823296_171_CDS_ENSG00000173473_ENST00000254480|human|control|control (ssRNA)
RNA: GGGAGUUCUACAGUCCGACGAUCGCCCCCAUCCUUCCGUCGAUAAACAGCUAGGCCUGCGGCUGCCGCCGCAAUCCCCGAGCCCGUGGCGCCUACCGCUGUCCCCGGCCCGCCGCCGCCCGCCGCUGCGGCCAUCGUCGCAGCCAACAGAGGAUUGAGCAUCA
B11: chr15:66840984:66840985:+_ENSG00000174442_ENST00000446801|hu_hu|FALSE|FALSE (ssRNA)
RNA: GGGAGUUCUACAGUCCGACGAUCCUAUUUUUUAAGUUUUCCCAAUACAGUUAAAGCUUUUGGGAUAAAGCUGUAUUUACUAAAAUGAUCCUGUUCUCAUUUGUGGUGCUCGUUCUCUUUGUCAUUUCAGAGCCCUUGCUAAGUCAACAGAGGAUUGAGCAUCA
B12: chrX:98862621:98862622:+_ENSMUSG00000034160_ENSMUST00000044475|mus_hu|mus_mus_mus_hu_False|28_48 (ssRNA)
RNA: GGGAGUUCUACAGUCCGACGAUCCUGCAUCUCCUUUAGAGUGUUUCCCAUAUUAGAGUAGGCAUCAGCAAAGGUAGGACUGAUUCGUAUGGCUUCUUUAUAAUGCAUCAGUGCUUCCUGCAGUUUUCCCUGCUGCUGCAGUACCAACAGAGGAUUGAGCAUCA
B13: chr2:144079538:144079539:-_ENSMUSG00000027423_ENSMUST00000110030|mus_mus|motif|central (ssRNA)
RNA: GGGAGUUCUACAGUCCGACGAUCGGCCUUGUCCAAAGCUUUGUUUGAAUUCUCAUAGUCAAUUAGGGCUUUGGUACGUCGGUACAAGAGAUCCUUUGCAGCCUCUAUGUUGAGCAUGUAGUAUCGGAGGAGCUCUGUCAGUUUCAACAGAGGAUUGAGCAUCA
B14: chr6:83912051:83912052:+_ENSMUSG00000030016_ENSMUST00000032088|mus_mus|FALSE|FALSE (ssRNA)
RNA: GGGAGUUCUACAGUCCGACGAUCUGCCUUUUUAUGAGAUGAUAAAACCAAAAUGUCCUUCAAAGCACCAAAUGGUUUUGCUAAGUUGUAAAUUUCUUCUGUAGAAUAUCCUUUGUUAGGCAAAUUAGAAAUAAAUACUACACUCAACAGAGGAUUGAGCAUCA

Some of the results follow.

For the assay, the target named is T1, UNK ZnF1-3. The assay can be described thus: nsRBNS (natural sequence RNA bind-n-seq); RBNS binding buffer (assumed for nsRBNS): 25 mM Tris pH 7.5, 150 mM KCl, 3 mM MgCl2, 0.01% Triton X-100, 500 ug/ml BSA, 20 U/ml SUPERase-In, 4 C; UNK is unkempt and MSI1 is Musashi-1; names of the RNAs are library labels; protein concentration not given here; high values mean tight binding.
As to B1, the binding signal is 0.912 enrichment R.

B2: the binding signal was found to be 0.907 enrichment R.

The molecule B3 returned a binding signal of 0.832 enrichment R.

B4 yielded a binding signal of 0.704 enrichment R.

Take B5: the binding signal was 2.13 enrichment R.

As to B6, the binding signal came out at 0.865 enrichment R.

B7 showed a binding signal of 1.51 enrichment R.

B8 gave a binding signal of 0.692 enrichment R.

Take B9: the binding signal amounted to 1.26 enrichment R.

As for B10, the binding signal turned out to be 1.65 enrichment R.

The molecule B11 came in with a binding signal of 0.693 enrichment R.

The molecule B12 displayed a binding signal of 0.901 enrichment R.

Molecule B13 had a binding signal of 1.13 enrichment R.

Molecule B14 registered a binding signal of 0.942 enrichment R.
